# Experimental data as given in PubChem BioAssay (Tox21).
# Several values for one entry are separate records, joined by “and”; a condition that tells them apart may be missing. Equal entries are not always repeated. Inconclusive means that the source gave no clear call. Such entries were picked first, then a sample of the others. For part of these data: Potencies of inconclusive entries are doubtful fits and often do not repeat. Activity calls are given as the source filed them. Unless noted, calls come from the whole dose curve; as a rule, active = well fitted curve in the direction sought with a large enough effect in the repeat runs; inconclusive = weak or mixed curves; inactive = no such curve, though single readings can be large; an effect the other way counts as inactive or inconclusive.
# How the values were obtained:
# [1] = biological target: Bile acid receptor (Homo sapiens) (UniProt Q96RI1); assay: qHTS assay to identify small molecule antagonists of the farnesoid-X-receptor (FXR) signaling pathway (AID 743217; active = well fitted inhibition curve with a large enough effect in the signal ratio in the repeat runs, not every such curve was filed as active; inconclusive = weak or mixed curves, or effect the other way; inactive = no such curve, though single readings can be large or run the other way; the % refers to the signal ratio; note: potency is the fitted concentration of half-maximal effect; for activity change, negative = inhibition: % is set by controls: 0 for no effect and ±100 for the full control effect); details: HEK293T FXR-UAS-bla, beta-lactamase ratio, CDCA-stimulated, 16 h; activity change, negative = inhibition: at 62.6 µM (top of the series) unless noted
# UniProt Q96RI1, sequence (Q96RI1 whole entry, looked up): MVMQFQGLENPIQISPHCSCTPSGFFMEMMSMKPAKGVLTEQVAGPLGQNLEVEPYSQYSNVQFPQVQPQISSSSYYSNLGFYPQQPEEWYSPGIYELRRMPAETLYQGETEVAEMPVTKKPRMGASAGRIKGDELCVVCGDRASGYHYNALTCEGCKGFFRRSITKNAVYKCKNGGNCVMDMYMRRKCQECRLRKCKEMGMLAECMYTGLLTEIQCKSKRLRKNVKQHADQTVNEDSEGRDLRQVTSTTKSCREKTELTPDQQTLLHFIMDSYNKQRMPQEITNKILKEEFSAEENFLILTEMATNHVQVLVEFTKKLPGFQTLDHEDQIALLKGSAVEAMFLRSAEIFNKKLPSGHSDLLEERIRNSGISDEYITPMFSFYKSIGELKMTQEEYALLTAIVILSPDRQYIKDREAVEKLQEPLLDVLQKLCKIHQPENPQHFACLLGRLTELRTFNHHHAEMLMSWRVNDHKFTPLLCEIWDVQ
# How it was run: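 FXR-UAS-bla HEK 293T cells (beta-lactamase reporter) given compound plus chenodeoxycholic acid (50 uM final), 16 h at 37C. LiveBLAzer B/G FRET substrate added for 2 h at room temperature; fluorescence read.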
# [2] = qHTS assay to identify small molecule agonists of the farnesoid-X-receptor (FXR) signaling pathway - cell viability counter screen (AID 743218); details: FXR-bla HEK293T viability, CellTiter-Glo luminescence, 16 h; viability change, negative = cytotoxic: at 62.6 µM (top of the series) unless noted; note: nearly all actives have a fitted effect of over 45% in size; note: potency is the fitted concentration of half-maximal effect; for viability change, negative = cytotoxic: % is set by controls: 0 for no effect and ±100 for the full control effect
# How it was run: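 FXR-UAS-bla HEK 293T cells exposed to compounds for 16 h at 37C. Cytotoxicity read in the same wells by CellTiter-Glo luminescence after 30 min at room temperature, following the beta-lactamase FRET read.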
# [3] = biological target: Vitamin D3 receptor (Homo sapiens) (UniProt P11473); assay: qHTS assay to identify small molecule antagonists of the vitamin D receptor (VDR) signaling pathway (AID 743223; active = well fitted inhibition curve with a large enough effect in the signal ratio in the repeat runs, not every such curve was filed as active; inconclusive = weak or mixed curves, or effect the other way; inactive = no such curve, though single readings can be large or run the other way; the % refers to the signal ratio; note: potency is the fitted concentration of half-maximal effect; for activity change, negative = inhibition: % is set by controls: 0 for no effect and ±100 for the full control effect); details: VDR-UAS-bla HEK293T, beta-lactamase FRET ratio, 16 h; activity change, negative = inhibition: at 61 µM (top of the series) unless noted
# UniProt P11473, sequence (P11473 whole entry, looked up): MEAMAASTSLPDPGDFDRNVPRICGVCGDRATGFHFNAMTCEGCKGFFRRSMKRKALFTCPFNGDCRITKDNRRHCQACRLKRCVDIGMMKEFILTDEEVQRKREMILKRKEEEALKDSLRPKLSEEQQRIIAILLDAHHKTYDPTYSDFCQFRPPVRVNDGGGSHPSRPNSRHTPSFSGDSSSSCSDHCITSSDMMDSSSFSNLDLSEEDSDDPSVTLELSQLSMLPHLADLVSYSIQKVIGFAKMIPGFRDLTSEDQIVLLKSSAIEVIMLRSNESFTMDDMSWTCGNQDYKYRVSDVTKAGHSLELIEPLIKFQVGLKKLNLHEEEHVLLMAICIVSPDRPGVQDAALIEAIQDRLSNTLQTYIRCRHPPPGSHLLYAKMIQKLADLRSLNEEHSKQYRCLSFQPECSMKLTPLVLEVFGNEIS
# How it was run: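 Beta-lactamase reporter read-out: FRET substrate fluorescence after 2 h at room temperature, following 16 h exposure of VDR-bla cells to test compound plus 3 nM (final) 1alpha,25-dihydroxyvitamin D3 agonist at 37C.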
# [4] = qHTS assay to identify small molecule agonists of the vitamin D receptor (VDR) signaling pathway - cell viability counter screen (AID 743224); note: nearly all actives have a fitted effect of over 50% in size; note: potency is the fitted concentration of half-maximal effect
# How it was run: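 VDR-bla cells, 4 h after plating, exposed to compounds for 16 h at 37C; viability then read in the same wells as CellTiter-Glo luminescence after 30 min at room temperature, following the bla FRET read.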
# [5] = qHTS assay to identify small molecule agonists of the endoplasmic reticulum stress response signaling pathway (AID 1159516; active = well fitted activation curve with a large enough effect in the signal ratio in the repeat runs, not every such curve was filed as active; inconclusive = weak or mixed curves, or effect the other way; the % refers to the signal ratio; note: potency is the fitted concentration of half-maximal effect); details: ESRE-bla HeLa, ER stress beta-lactamase reporter, 5 h; activation: at 61 µM (top of the series) unless noted
# How it was run: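 CellSensor ESRE-bla HeLa cells, 1,500 per well, plated overnight, then exposed to compounds for 5 hr at 37 C. Beta-lactamase reporter read with LiveBLAzer B/G FRET substrate after 2 hr at room temperature, 405 nm excitation, 460 and 530 nm emission.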
# [6] = biological target: Peroxisome proliferator-activated receptor gamma (Homo sapiens) (UniProt P37231); assay: qHTS assay to identify small molecule antagonists of the peroxisome proliferator-activated receptor gamma (PPARg) signaling pathway (AID 743191; calls by dose curve; note: nearly all actives have a fitted effect of over 30% in size; note: potency is the fitted concentration of half-maximal effect); details: HEK293H PPARg-UAS-bla, beta-lactamase ratio, antagonist, 17 h
# UniProt P37231, sequence (P37231 whole entry, looked up): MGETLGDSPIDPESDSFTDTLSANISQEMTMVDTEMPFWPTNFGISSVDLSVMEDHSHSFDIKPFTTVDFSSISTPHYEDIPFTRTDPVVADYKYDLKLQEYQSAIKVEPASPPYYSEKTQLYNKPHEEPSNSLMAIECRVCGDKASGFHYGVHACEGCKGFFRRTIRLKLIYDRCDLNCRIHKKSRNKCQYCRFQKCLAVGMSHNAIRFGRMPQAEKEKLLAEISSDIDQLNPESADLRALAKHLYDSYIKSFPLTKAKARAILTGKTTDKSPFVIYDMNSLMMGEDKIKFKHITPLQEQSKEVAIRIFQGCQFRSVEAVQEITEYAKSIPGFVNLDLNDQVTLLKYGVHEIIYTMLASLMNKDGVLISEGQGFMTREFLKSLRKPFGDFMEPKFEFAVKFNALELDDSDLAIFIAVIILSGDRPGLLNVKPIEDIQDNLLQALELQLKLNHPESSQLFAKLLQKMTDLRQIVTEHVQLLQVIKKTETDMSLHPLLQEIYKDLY
# How it was run: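 GeneBLAzer PPARg UAS-bla HEK293H cells, 5 h post-plating, exposed to compounds 17 h at 37C. LiveBLAzer B/G FRET substrate added for 1 h at room temperature; beta-lactamase reporter read by fluorescence intensity.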
# [7] = qHTS assay to identify small molecule antagonists of the peroxisome proliferator-activated receptor delta (PPARd) signaling pathway - cell viability counter screen (AID 743213); details: PPARd-bla HEK293H viability, CellTiter-Glo luminescence, 17 h; viability change, negative = cytotoxic: at 62 µM (top of the series) unless noted; note: potency is the fitted concentration of half-maximal effect; nearly all actives have a fitted effect of over 50% in size
# How it was run: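 Same-well viability: cells pre-incubated 5 h, dosed with compound plus 300 nM L165041, kept 17 h at 37 C, FRET substrate 2 h RT, then CellTiter-Glo 30 min RT and luminescence.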
# [8] = qHTS assay for small molecule agonists of the antioxidant response element (ARE) signaling pathway (AID 743202; active = well fitted activation curve with a large enough effect in the signal ratio in the repeat runs, not every such curve was filed as active; inconclusive = weak or mixed curves, or effect the other way; inactive = no such curve, though single readings can be large or run the other way; the % refers to the signal ratio; note: potency is the fitted concentration of half-maximal effect); details: HepG2 ARE-bla reporter, beta-lactamase FRET, 16 h; activation: at 73.3 µM (top of the series) unless noted
# How it was run: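 ARE-bla HepG2 cells (beta-lactamase reporter under the antioxidant response element), plated 5 hours, then exposed to compounds 16 hours at 37 C. LiveBLAzer B/G FRET substrate added for 2 hours at room temperature; fluorescence intensity read.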
# [9] = biological target: Peroxisome proliferator-activated receptor delta (Homo sapiens) (UniProt Q03181); assay: qHTS assay to identify small molecule agonists of the peroxisome proliferator-activated receptor delta (PPARd) signaling pathway (AID 743212; calls by dose curve; note: potency is the fitted concentration of half-maximal effect); details: HEK293H PPARd-UAS-bla, beta-lactamase FRET ratio, 17 h; activation: at 62.6 µM (top of the series) unless noted
# UniProt Q03181, sequence (Q03181 whole entry, looked up): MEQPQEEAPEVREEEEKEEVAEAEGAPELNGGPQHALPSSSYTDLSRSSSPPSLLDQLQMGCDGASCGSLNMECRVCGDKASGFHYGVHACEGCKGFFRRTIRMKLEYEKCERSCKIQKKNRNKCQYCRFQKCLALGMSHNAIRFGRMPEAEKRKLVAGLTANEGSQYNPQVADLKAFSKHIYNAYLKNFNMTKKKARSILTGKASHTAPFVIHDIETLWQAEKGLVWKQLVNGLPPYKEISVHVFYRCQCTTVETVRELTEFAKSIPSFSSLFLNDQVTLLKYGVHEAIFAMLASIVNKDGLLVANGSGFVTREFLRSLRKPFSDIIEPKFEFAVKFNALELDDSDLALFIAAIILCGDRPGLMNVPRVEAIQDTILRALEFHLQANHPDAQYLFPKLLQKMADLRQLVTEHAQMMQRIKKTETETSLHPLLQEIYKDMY
# How it was run: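 GeneBLAzer UAS-bla HEK293H cells carrying a PPARδ construct were exposed to compounds at 37 °C. Beta-lactamase activity was read by FRET fluorescence after 2 h at room temperature with LiveBLAzer B/G substrate.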
# [10] = qHTS assay to identify small molecule antagonists of the peroxisome proliferator-activated receptor gamma (PPARg) signaling pathway - cell viability counter screen (AID 743194); details: PPARg-bla HEK293H viability, CellTiter-Glo luminescence, 17 h; Potency: co-treated with 50 nM rosiglitazone unless noted; activity change, negative = cytotoxicity: at 62.6 µM (top of the series), co-treated with 50 nM rosiglitazone unless noted; note: potency is the fitted concentration of half-maximal effect; nearly all actives have a fitted effect of over 55% in size
# How it was run: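 Cytotoxicity counter screen in PPARg-bla HEK293H cells, same wells as reporter assay. Compounds plus 50 nM rosiglitazone (final) for 17 h at 37 C, then viability read by CellTiter-Glo luminescence.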
# [11] = qHTS assay for small molecule agonists of the antioxidant response element (ARE) signaling pathway - cell viability counter screen (AID 743203; calls by dose curve; note: potency is the fitted concentration of half-maximal effect; nearly all actives have a fitted effect of over 55% in size)
# How it was run: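 ARE-bla HepG2 cells were plated, rested 5 h at 37C/5% CO2, then exposed to compounds in DMSO for 16 h. Viability was read as CellTiter-Glo luminescence after 30 min at room temperature, in the same wells as the ARE screen.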
# [12] = qHTS assay for small molecule activators of the heat shock response signaling pathway - cell viability counter screen (AID 743209); details: HSE-bla HeLa viability, CellTiter-Glo luminescence, 5 h; activity change, negative = cytotoxicity: at 62.6 µM (top of the series) unless noted; note: potency is the fitted concentration of half-maximal effect; nearly all actives have a fitted effect of over 50% in size
# How it was run: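 HSE-bla HeLa cells plated overnight, then exposed to Tox21 compounds (23 nL in DMSO) for 5 h at 37 C. After the bla reporter read, CellTiter-Glo was added in the same wells and luminescence read after 30 min at room temperature.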
# [13] = qHTS assay for small molecule activators of the heat shock response signaling pathway (AID 743210; active = well fitted activation curve with a large enough effect in the signal ratio in the repeat runs, with a control signal flat, not every such curve was filed as active; inconclusive = weak or mixed curves; the % refers to the signal ratio; note: potency is the fitted concentration of half-maximal effect); details: HeLa HSE-bla reporter, beta-lactamase ratio, 5 h; activation: at 62.6 µM (top of the series)
# How it was run: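 HSE-bla HeLa cells (beta-lactamase reporter under heat shock response elements), plated overnight, then exposed to compounds 5 h at 37 C; LiveBLAzer B/G FRET substrate added, 2.5 h at room temperature, fluorescence intensity read.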
# [14] = biological target: Peroxisome proliferator-activated receptor delta (Homo sapiens) (UniProt Q03181); assay: qHTS assay to identify small molecule antagonists of the peroxisome proliferator-activated receptor delta (PPARd) signaling pathway (AID 743215; active = well fitted inhibition curve with a large enough effect in the signal ratio in the repeat runs, not every such curve was filed as active; inconclusive = weak or mixed curves, or effect the other way; inactive = no such curve, though single readings can be large or run the other way; the % refers to the signal ratio;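 note: cells stimulated with agonist L165041 at 300 nM final during compound exposure; potency is the fitted concentration of half-maximal effect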); details: HEK293H PPARd-UAS-bla, beta-lactamase FRET ratio, antagonist, 17 h; ratio activity, negative = inhibition: at 62 µM (top of the series) unless noted
# How it was run: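 PPARd-bla HEK293H cells (UAS-bla reporter) preincubated 5 h, then given compound plus 300 nM final L165041 agonist for 17 h at 37 C. Beta-lactamase activity read by LiveBLAzer B/G FRET substrate fluorescence after 2 h at room temperature.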
# [15] = biological target: Bile acid receptor (Homo sapiens) (UniProt Q96RI1); assay: qHTS assay to identify small molecule agonists of the farnesoid-X-receptor (FXR) signaling pathway (AID 743220; active = well fitted activation curve with a large enough effect in the signal ratio in the repeat runs, not every such curve was filed as active; inconclusive = weak or mixed curves, or effect the other way; the % refers to the signal ratio; note: % is set by controls: 0 for no effect and ±100 for the full control effect); details: HEK293T FXR-UAS-bla, beta-lactamase FRET ratio, 16 h; activation: at 62.6 µM (top of the series) unless noted
# How it was run: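 Beta-lactamase reporter under UAS control in GeneBLAzer FXR HEK 293T cells (5000/well) measured with LiveBLAzer FRET substrate after 2 h at room temperature. Compound exposure lasted 16 h at 37C.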
# [16] = qHTS assay to identify small molecule antagonists of the farnesoid-X-receptor (FXR) signaling pathway - cell viability counter screen (AID 743221; active = well fitted cell-killing curve with a large enough effect in the repeat runs, not every such curve was filed as active; inconclusive = weak or mixed curves, or effect the other way; inactive = no such curve, though single readings can be large or run the other way; note: potency is the fitted concentration of half-maximal effect; nearly all actives have a fitted effect of over 50% in size); details: FXR-bla HEK293T viability, CellTiter-Glo luminescence, 16 h; activity change, negative = cytotoxicity: at 62.6 µM (top of the series) unless noted
# How it was run: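 HEK 293T FXR-bla cells, 5 h pre-incubation; compound + CDCA 50 uM final, 16 h, 37 C; beta-lactamase FRET read first, then CellTiter-Glo luminescence, 30 min RT.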
# [17] = qHTS assay to identify small molecule antagonists of the vitamin D receptor (VDR) signaling pathway - cell viability counter screen (AID 743225); details: VDR-bla HEK293T viability, CellTiter-Glo luminescence, 16 h; viability change, negative = cytotoxic: at 61 µM (top of the series) unless noted
# How it was run: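 Viability counter screen run in the same wells as the beta-lactamase reporter assay: HEK 293T VDR-UAS-bla cells, 16 h compound exposure at 37C with 3 nM (final) 1-alpha,25-dihydroxyvitamin D3. CellTiter-Glo luminescence, 30 min, room temperature.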
# [18] = ratio activity, negative = inhibition: at 62.6 µM (top of the series) unless noted
# Tags give direction and shape of the fitted curve or compound fluorescence and quenching.
compound,measurement,setting,value
N[C@@H]1C[C@H]1c1ccccc1,Potency,[1],inactive
same,Potency,[2],inactive
same,Potency,[3],inactive
same,Potency,[4],"inconclusive: 3.8 nM [rising, full curve, poor fit]"
same,Potency,[5],inactive
CSc1nc(NC(C)C)nc(NC(C)C)n1,Potency,[6]; [18],"inconclusive: 6.92 µM [inhibitor, partial curve, poor fit]"
same,"ratio activity, negative = inhibition",[6]; [18],inconclusive: -43.2%
same,Potency,[7],"inconclusive: 692 nM [cytotoxic, full curve, poor fit]"
same,Potency,[2],"inconclusive: 0.0195 µM [rising, full curve, poor fit]"
same,"activity change, negative = inhibition",[3],inconclusive: 48%
C=CC(=O)OC,Potency,[1],inactive
same,"activity change, negative = inhibition",[3],inconclusive: 0.185% [at 78.8 µM]
same,Potency,[5],"inconclusive: 62.3 µM [rising, single point]"
c1ccc(OP(Oc2ccccc2)Oc2ccccc2)cc1,"ratio activity, negative = inhibition",[6]; at 62.6 µM (top of the series),inactive: 9.6%
same,"ratio activity, negative = inhibition",[6]; [18],inconclusive: 20.2%
BrCCBr,"ratio activity, negative = inhibition",[6]; at 62.6 µM (top of the series),inactive: -1.53%
same,"ratio activity, negative = inhibition",[6]; [18],inconclusive: 19.7% [at 81.1 µM]
same,activation,[8],inconclusive: 20.2% [at 94.8 µM]
same,Potency,[9],"inconclusive: 22.1 µM [rising, single point]"
same,Potency,[7],"inconclusive: 12000 nM [cytotoxic, single point]"
same,Potency,[3],"inconclusive: 62.4 µM [activator, single point]"
same,Potency,[4],inactive
CCCCCCCCCCCCCCCC[n+]1ccccc1,Potency,[6]; [18],"inconclusive: 61.6 µM [cytotoxic, single point] [middle of 4 runs]"
same,Potency,[10],active: 26.6 µM [middle of 4 runs]
same,Potency,[8],"inconclusive: 28.6 µM [falling, partial curve] [middle of 4 runs]"
same,Potency,[11],active: 26.9 µM [middle of 4 runs]
same,Potency,[12],"inconclusive: 29.8 µM [cytotoxic, partial curve, poor fit] [middle of 4 runs]"
same,Potency,[13],inconclusive: 55.4 µM [cytotoxic] [middle of 4 runs]
same,Potency,[9],inconclusive: 61.6 µM [single point] [middle of 4 runs]
same,Potency,[7],active: 24.2 µM [middle of 4 runs]
same,Potency,[14],"inconclusive: 51.3 µM [cytotoxic, single point] and inconclusive: 34.7 µM [cytotoxic, single point] and inconclusive: 60.8 µM [cytotoxic, single point]"
same,Potency,[1],"inconclusive: 57.5 µM [cytotoxic, single point] [middle of 4 runs]"
same,activation,[15],inconclusive: -0.186%
same,Potency,[16],active: 51.3 µM [middle of 4 runs]
same,Potency,[4],active: 25.7 µM [middle of 4 runs]
same,Potency,[17],active: 24.2 µM [middle of 4 runs]
